Measured values published in PMC5892938.
Some of the results follow. At the low end of the ranking the order means little.

target: GST-SBP-SLBP (stem-loop binding protein) (UniProt Q14493); test: targeted RNA Bind-n-Seq; conditions: RBNS binding buffer: 25 mM Tris pH 7.5, 150 mM KCl, 3 mM MgCl2, 0.1% Tween, 0.5 mg/mL BSA, 1 mM DTT; 27 nM protein, 750 pM RNA pool; temperature not stated; high values mean tight binding;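 note: DESeq read counts versus GST-SBP nonspecific binding control pulldown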

Sequence	binding signal (log2 fold change)
GGUCACGUCUCAAUCAACUCUUCCGAGGGGGGGAAAACCCCUUUACCCUCAACAUCAACAGCUCGCAGUCAAG	0.279
GGUCACGUCUCAAUCAACUCUUCUUCAGGAGUUUCCUCCUGCUUACUCAACAGCUCGCAGUCAAG	0.139
GGUCACGUCUCAAUCAACUCAUCUUCCAGGGAAAGCCCUGGCUAUCUCAACAGCUCGCAGUCAAG	-0.27
GGUCACGUCUCAAUCAACUCUUACGAGGGGGGGAAAACCCCUUUACCCUCAACAUCAACAGCUCGCAGUCAAG	0.181
GGUCACGUCUCAAUCAACUCUUAAGAGGGGGGGAAAACCCCUUUGCCCUCAAUUUCAACAGCUCGCAGUCAAG	-0.503
GGUCACGUCUCAAUCAACUCUAUCUCCAGGGAAAGCCCUGGUAUACUCAACAGCUCGCAGUCAAG	0.0996
GGUCACGUCUCAAUCAACUCAACUUCAGGAGUUUGCUCCUGUAAUUUCAACAGCUCGCAGUCAAG	-0.0524
GGUCACGUCUCAAUCAACUCCUUAGAGGGGGGGAAAACCCCUUUGCCCUCGAAAUCAACAGCUCGCAGUCAAG	-0.0521
GGUCACGUCUCAAUCAACUCUAUCUCCAGGGAAAACCCUGGUAAUUUCAACAGCUCGCAGUCAAG	-0.102
GGUCACGUCUCAAUCAACUCAUCCCCCAGGGAAAACCCUGGUUAAUUCAACAGCUCGCAGUCAAG	-0.334
GGUCACGUCUCAAUCAACUCAUCUUCCAGGGAAAGCCCUGGCAUACUCAACAGCUCGCAGUCAAG	-0.0497
GGUCACGUCUCAAUCAACUCAACUCCAGGAGUUUACUCCUGCUUUUUCAACAGCUCGCAGUCAAG	0.0965
GGUCACGUCUCAAUCAACUCUUCUUCAGGAGUUUUCUCCUGUUAUUUCAACAGCUCGCAGUCAAG	-0.0547
GGUCACGUCUCAAUCAACUCCCCAGAGGGGGGGAAAACCCCUUUACCCUCGUCCUCAACAGCUCGCAGUCAAG	-0.0309
GGUCACGUCUCAAUCAACUCUACUUCAGGAGUUUUCUCCUGUUAUCUCAACAGCUCGCAGUCAAG	-0.00831
GGUCACGUCUCAAUCAACUCAUCUCCAGGAGUUUCCUCCUGUUUAUUCAACAGCUCGCAGUCAAG	0.016
GGUCACGUCUCAAUCAACUCAUUCCCAGGAGUUUACUCCUGCUUACUCAACAGCUCGCAGUCAAG	0.081
GGUCACGUCUCAAUCAACUCUAUCUCCAGGGAAAACCCUGGUAUAUUCAACAGCUCGCAGUCAAG	-0.118
GGUCACGUCUCAAUCAACUCAAUCUCAGGAGUUUGCUCCUGUUUUCUCAACAGCUCGCAGUCAAG	0.19

Sequence	binding signal (log2 fold change)
GGUCACGUCUCAAUCAACUCUUCCUCCAGGGAAAACCCUGGUAAACUCAACAGCUCGCAGUCAAG	0.339
GGUCACGUCUCAAUCAACUCACUAGAGGGGGGGAAAACCCCUUUACCCUCCAAUUCAACAGCUCGCAGUCAAG	-0.189
GGUCACGUCUCAAUCAACUCGUCUUCAGGAGUUUCCUCCUGCAUAUUCAACAGCUCGCAGUCAAG	0.126
GGUCACGUCUCAAUCAACUCUACUUCCAGGGAAACCCCUGGCUAAUUCAACAGCUCGCAGUCAAG	0.153
GGUCACGUCUCAAUCAACUCAUUCCCCAGGGAAAACCCUGGUAUUCUCAACAGCUCGCAGUCAAG	0.0986
GGUCACGUCUCAAUCAACUCAUCCUCAGGAGUUUUCUCCUGCUUUCUCAACAGCUCGCAGUCAAG	-0.0126
GGUCACGUCUCAAUCAACUCAUCGUCCAGGGAAAACCCUGGUUUUCUCAACAGCUCGCAGUCAAG	0.033
GGUCACGUCUCAAUCAACUCCAUCGAGGGGGGGAAAACCCCUUUACCCUCAAUUUCAACAGCUCGCAGUCAAG	-0.00794
GGUCACGUCUCAAUCAACUCCAAAGAGGGGGGGAAAACCCCUUUGCCCUCCACAUCAACAGCUCGCAGUCAAG	-0.371
GGUCACGUCUCAAUCAACUCACAAGAGGGGGGGAAAACCCCUUUGCCCUCAUACUCAACAGCUCGCAGUCAAG	-0.362
GGUCACGUCUCAAUCAACUCAAAAGAGGGGGGGAAAACCCCUUUACCCUCACUCUCAACAGCUCGCAGUCAAG	-0.102
GGUCACGUCUCAAUCAACUCAAUUUCAGGAGUUUACUCCUGCAUUUUCAACAGCUCGCAGUCAAG	-0.0461
GGUCACGUCUCAAUCAACUCUUCGUCAGGAGUUUACUCCUGCUUUUUCAACAGCUCGCAGUCAAG	0.195
GGUCACGUCUCAAUCAACUCAUCCCCCAGGGAAACCCCUGGCUAUCUCAACAGCUCGCAGUCAAG	0.143
GGUCACGUCUCAAUCAACUCUUUCCCCAGGGAAAUCCCUGGCUAUUUCAACAGCUCGCAGUCAAG	-0.129
GGUCACGUCUCAAUCAACUCUUUUUCAGGAGUUUCCUCCUGUUAAUUCAACAGCUCGCAGUCAAG	0.127
GGUCACGUCUCAAUCAACUCUUUUCCCAGGGAAACCCCUGGUUUUCUCAACAGCUCGCAGUCAAG	0.0265
GGUCACGUCUCAAUCAACUCUAAAGAGGGGGGGAAAACCCCUUUACCCUCAAUUUCAACAGCUCGCAGUCAAG	0.102
